Tested on: influenza B
Settings: confirmed by the inventors, no data shown

Structure (SMILES): CCc1c(C)nc2cc(-c3ccc(OC)c(OC)c3)nn2c1NCCc1ccccn1 [A0435]
- inhibition of influenza B: inhibitable

Source: patent publication US9987282B2, “Small molecule inhibitors of influenza A RNA-dependent RNA polymerase” (Nant Holdings IP, LLC, priority 2011, dated 2018)
